Results taken from the supplement of paper PMC11417369.
The other results are listed elsewhere or left out.

Tested on: PfHDP1 homeodomain (GST-tagged)
Test: gcPBM binding intensity (ln(normalized median fluorescence intensity)); higher = stronger DNA binding
Method in brief: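 GST-tagged P. falciparum DNA-binding domains, expressed in E. coli (about 25 μg on average), were applied for 1 h to an Agilent 4 × 180k array of primer-extended double-stranded 36-bp intergenic genomic probes plus negative controls. The binding buffer was 1× PBS with 1% milk, 0.2 mg/ml BSA, 0.5% salmon testes DNA and 0.03% Triton X-100. Bound protein was detected with Alexa488 anti-GST antibody and scanned at 488 nm. Binding intensity is the highest Masliner-normalised natural-log median intensity across replicate spots of either probe orientation.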

Row | Sequence | gcPBM binding intensity (ln)
1 | TATATAATATATTAATGTACTTAAAATATATTCTAT [XGTACX_site1235] | 6.16
2 | AATAAAATATACTATTGTACATATGGAACTACTTGA [XGTACX_site8928] | 6.24
3 | TTGTTTTTAGTTTATACACACCATATTAAAATAATG [CACACA_site5675] | 7.02
4 | ATTTATTATATATAGTGTACGTTCTTAATTATAATT [XGTACX_site7480] | 6.55
5 | TGTATAAACCCACGTACACACACTAAGTATATCCAA [CACACA_site1605] | 6.84
6 | TTTTTTAAATATTAAAAATGGGATCTTATAACATAT [GTGCAC_negctrl_site666] | 6.38
7 | TAAAATATATTGCCAGTGCATAATATATGTAATTAT | 9.13
8 | TTATTTTTAACGTACGCACACATATAAATATATTTA [CACACA_site1976] | 7.4
9 | AACTAATAAAAAAAAAAAACATTAAACAGGACAAAT [XGTACX_negctrl_site287] | 6.68
10 | TAAACAAATAAATAAACACACAATATAGGTATATAT [CACACA_site7739] | 6.49
11 | TATATATATTTCCAGTGTACTTATTTTTTAATCAAT [XGTACX_site8220] | 6.7
12 | CACATTTAGAAATAGTTTTATTTTGTATATTCTATT [CACACA_negctrl_site1382] | 6.01
13 | TTTTGTATATATCACATTAAAAGAAAAAAATATATG [GTGCAC_negctrl_site120] | 6.39
14 | GTATGTGTATGTGTATGTACATATGTATGTATAAAA [XGTACX_site8191] | 8.13
15 | TATACATTTATGTACACACACATATCTGTATATTTA [CACACA_site5617] | 6.39
16 | GTGTAGTTAAAAAAAAGTACAGATTTTTTTTTTTTT [XGTACX_site849] | 6.29
17 | ATAAGAACGTCTATGTGTACGCAGCAAAACTGAGTT [XGTACX_site6385] | 6
18 | AAAAAAAAAAAAACAAGTACAAAGGATAGAAAAAAA [XGTACX_site4133] | 6.23
19 | ATAGAATATTGATATTGTACGTTATCTTAAAACAAT [XGTACX_site1702] | 6.27

Row | Sequence | gcPBM binding intensity (ln)
20 | AACCAATTATATTTACGTACGTACGGTTTTTTATAT [XGTACX_site1291] | 6.8
21 | CAAAAAAAAAAAAAAAATAAATAAAGGAAATAAAAA [CACACA_negctrl_site20] | 6
22 | ACATATAAAATGTATACACACAAATATTACATATAT [CACACA_site1472] | 6.52
23 | AATAAAAAATATAACACAAATATGTATATATATATA [TGCATGCA_negctrl_site245] | 8.92
24 | TTCTCAAAGAAGAAAAAGTTTTTTTAATTTTTCTTT [XGTACX_negctrl_site543] | 5.75
25 | AATATATTTTTTTTTTGTACATATTGTAAAATAATA [XGTACX_site6805] | 6.38
26 | ATATATTAATATACTCGTACATATTCTTATTGTGTA [XGTACX_site3728] | 6.79
27 | TATAAAGATATAAATGCACACGTATTAAAAAAAAAA [CACACA_site8223] | 8.22
28 | AGGAGGATAGTTCACAGTACCCAGTAACTCTACGGA [XGTACX_site1997] | 6.06
29 | GCATATATGGATATATAGGTATATATAAATGCAATA [GTGCAC_negctrl_site24] | 6.46
30 | CCTCTCATTTTATATAGTACATATTTCAAAAAAAAA [XGTACX_site488] | 6.65
31 | GCATATTTTCCCTGTGAATAAAGTTTTTTTTTTTAT [XGTACX_negctrl_site87] | 6.29
32 | ATATAAAAAAAAAATTGTACAAAAATATATACATAT [XGTACX_site469] | 6.54
33 | AAAATACACGATAGTTGTACATTAAATGTATACAAT [XGTACX_site360] | 6.49
34 | CATCCGTTGATATATGCATGCATATTGTTATTACCA [TGCATGCA_site868] | 7.15
35 | AAATGACTATATAAAAGTACTAGAAAGTATAAATAT [XGTACX_site944] | 6.58
36 | TCTAATACACAATGTTGTACATATTAATATATATGT [XGTACX_site2931] | 7.25
37 | ATCATTCTTAAACCGTGTACTTATTATTTTTTTTTT [XGTACX_site2798] | 6.88
38 | TATTTTTTACATTCGTGTACGCATTTTTGTGAATTT [XGTACX_site5339] | 6.48

Row | Sequence | gcPBM binding intensity (ln)
39 | AAAAATAGAGCAGCTCTCATATTTTTATGTGCAATA [CACACA_negctrl_site837] | 10.6
40 | ACAAAAATATTTGTAAAAAGAAATATAAATAAATAA [TGCATGCA_negctrl_site357] | 6.47
41 | TATTACACACAATATTGTACACATAGGAAAAATATT [XGTACX_site1726] | 7.01
42 | GCATTTATGAAAAATGTACACACATCAAATGCTTAT [CACACA_site9347] | 6.48
43 | AGGATATATTATATGTACACACACATATAAGGGATT [GTGCAC_negctrl_site47] | 6.52
44 | AAGGTATAGAAACACACACACGTGAATATAGTTTAA [CACACA_site5109] | 6.59
45 | CGTTATATAATAAAGGTGCATAGATATATCATTATA [GTGCAC_site9774] | 7.86
46 | TATATAACATATATATGTACACATAATATCAGATTT [XGTACX_site1041] | 6.59
47 | TATATATGTATATATTGTACTTTAAGACAAATATAT [XGTACX_site1052] | 6.36
48 | TTCTTAAATATATTCAACATACATAATATATAATCT [CACACA_negctrl_site1806] | 6.53
49 | AATATTTTTCAATTTCATGTGCATTCATTGAAGTTA [CACACA_negctrl_site1232] | 9.18
50 | TAATTGTAGACATGCACACACAAATATTATATATGT [CACACA_site845] | 8.16
51 | TAATTTTTTTTAAACACACACATTACATTCAAAAAT [CACACA_site127] | 6.49
52 | TTTCAAATATATATAGCACACAAGGTATAATATAAA [CACACA_site877] | 6.38
53 | TTCACTAATAAATACGCACACATATACATATATATA [CACACA_site1383] | 7.62
54 | ATATAAAAAAGGGAGGTAAATGAATGTGAAACCCAA [GTGCAC_negctrl_site359] | 6.62
55 | TTTTAATTAGTACAAACACACATATACACCCAAAAA [CACACA_site5422] | 7.38
56 | CTAATATAGGTATGCACACACAATATGTACATATTT [CACACA_site7558] | 9.3
